Our source for the GI50 and TGI values is PubChem BioAssay (NCI).

Values joined by “and” are separate entries in the source; they are usually repeats but may differ in a detail not shown here. Equal values may be shown once.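 Protocol summary: plate cells (96-well), add compound at 5 concentrations, incubate 48 h, interpolate endpoints linearly. GI50 = concentration required for 50% inhibition of growth. TGI: total growth inhibition.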

As a reminder, the GI50 is the concentration at which growth is held to half of that of the control. A word on the TGI: it is the concentration giving total growth inhibition. A higher TGI goes with less potent growth arrest.

In this assay the test system is NCI-H322M lung. Nature of the assay: DTP human tumour cell line panel, 48 h.
As to `CC1=C(c2cc(-c3ccc(Cl)cc3)c(C#N)c(N)n2)C(c2ccccc2)NC(=S)N1` (stereo unspecified), the GI50 is 20 µM and the TGI came out at 50.9 µM.
Take `CN1CCN(C(=O)Oc2cc3c(c4ccccc24)[C@H](CCl)CN3C(=O)c2cc3cc(OCCCN4CCC4)ccc3[nH]2)[C@H]2CSSC[C@H]21`: the GI50 is 0.018 µM and 0.0135 µM; the TGI was 0.0575 µM and 0.0782 µM.
As to `COC(=O)CNC(=O)COc1c(OC)c(OC)cc2oc(-c3cccc(C(=O)Nc4ccc(Cl)cc4)c3)cc(=O)c12`, the GI50 was 12.5 µM and the TGI worked out at 39.6 µM.
The matching figures for `COc1cc2c3c(n(CCCNC(C)C)c(=O)c2cc1OC)-c1nc2c(cc1C3=O)OCO2`: 9.1 µM and 21.4 µM.
For `CSc1ccc(C(=O)Nc2ccc3nn(/C(C#N)=C/c4ccccn4)nc3c2)cc1`, in that order: 5.34 µM and 11.3 µM.
The matching figures for `COc1c(B(O)O)cc(F)cc1-c1nc2c(F)cc3[nH]ncc3c2c2c1CCCC2`: 10.3 µM and 87.8 µM.
For `CCNCCCn1c2c(c3cc(OC)c(OC)cc3c1=O)C(=O)c1cc3c(nc1-2)OCO3`, the GI50 was 4.02 µM and the TGI is 18.1 µM.
For `O=C(c1ccc(Cl)cc1)C1[C@H](c2ccc(Br)cc2)[C@@H](c2ccccc2)NC12C(=O)Nc1ccc(Br)cc12` (stereo partly specified), in that order: 3.89 µM and 10.3 µM.
